This is an account of results in patent publication US20130225496A1 (NOVOZYMES BIOPHARMA DK A S, published 2013).

The assay deals with T1, GST-tagged soluble human neonatal Fc receptor (shFcRn-GST) (human, UniProt P55899 fragment; P61769 fragment).
T1 construct: Immobilised by amine coupling on CM5 chips (about 1500-2500 RU); Made by the methods of WO 2011/051489; also called human FcRn; not shown: GST tag
As to the kind of experiment: SPR (Biacore 3000), albumin over immobilised shFcRn-GST (~1500 RU), pH 6.0, 1:1 model. As to the method: SPR experiments were carried out using a Biacore 3000 instrument (GE Healthcare). […] Phosphate buffer (67 mM phosphate buffer, 0.15 M NaCl, 0.005% Tween 20) at pH 6.0) was used as running buffer and dilution buffer.

T1 sequence (P55899 24-290 limits assumed, chain 1 of 2): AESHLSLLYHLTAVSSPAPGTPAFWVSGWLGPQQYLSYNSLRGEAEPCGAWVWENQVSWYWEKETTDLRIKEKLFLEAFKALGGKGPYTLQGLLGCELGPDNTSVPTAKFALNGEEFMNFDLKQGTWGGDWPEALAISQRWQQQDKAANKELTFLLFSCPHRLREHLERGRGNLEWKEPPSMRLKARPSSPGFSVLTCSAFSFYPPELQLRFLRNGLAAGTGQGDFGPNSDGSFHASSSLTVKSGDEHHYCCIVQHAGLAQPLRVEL
T1 sequence (P61769 21-119 limits assumed, chain 2 of 2, further chain): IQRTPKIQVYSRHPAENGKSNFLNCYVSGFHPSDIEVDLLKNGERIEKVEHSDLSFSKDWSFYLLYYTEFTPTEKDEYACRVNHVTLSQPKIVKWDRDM

B1: N-terminus of HSA, C-terminus of sheep albumin (HSA-SheepC) (other)
chain: DAHKSEVAHRFKDLGEENFKALVLIAFAQYLQQCPFEDHVKLVNEVTEFAKTCVADESAENCDKSLHTLFGDKLCTVATLRETYGEMADCCAKQEPERNECFLQHKDDNPNLPRLVRPEVDVMCTAFHDNEETFLKKYLYEIARRHPYFYAPELLFFAKRYKAAFTECCQAADKAACLLPKLDELR[letters of about 200 residues omitted]NLIKQNCELFEQLGEYKFQNALLVRYTKKVPQVSTPTLVEVSRNLGKVGSKCCKHPEAKRMPCAEDYLSVVLNQLCVLHEKTPVSDRVTKCCTESLVNRRPCFSALEVDETYVPKEFNAETFTFHADICTLSEKERQIKKQTALVELVKHKPKATKEQLKAVMDDFAAFVEKCCKADDKETCFAEEGPKLVASTQAALA
notes: Plasmid pDB4117; also called HSA K573P/A578S/S579T/G584A
Molecule B1 yielded a Kd of 600 nM, a koff of 0.0021 s⁻¹ and a kon of 3300 M⁻¹ s⁻¹.

B2: N-terminus of HSA, C-terminus of rabbit albumin (HSA-RabC) (other)
chain: DAHKSEVAHRFKDLGEENFKALVLIAFAQYLQQCPFEDHVKLVNEVTEFAKTCVADESAENCDKSLHTLFGDKLCTVATLRETYGEMADCCAKQEPERNECFLQHKDDNPNLPRLVRPEVDVMCTAFHDNEETFLKKYLYEIARRHPYFYAPELLFFAKRYKAAFTECCQAADKAACLLPKLDELR[letters of about 200 residues omitted]NLIKQNCELFEQLGEYKFQNALLVRYTKKVPQVSTPTLVEVSRNLGKVGSKCCKHPEAKRMPCAEDYLSVVLNQLCVLHEKTPVSDRVTKCCTESLVNRRPCFSALEVDETYVPKEFNAETFTFHADICTLSEKERQIKKQTALVELVKHKPKATKEQLKAVMDDFAAFVEKCCKADDKETCFAEEGPKLVESSKATLG
notes: Plasmid pDB4116; also called HSA K573P/A577E/A578S/Q580K/A582T
Molecule B2 yielded a Kd of 400 nM, a koff of 0.0016 s⁻¹ and a kon of 3500 M⁻¹ s⁻¹.
